# Data from paper PMC4336329 (PLoS ONE, 2015).
# Out of some 310,000 compounds screened, about 2,200 (0.71%) showed an effect of 50% or more. The effect is printed as a negative number. Some of the results follow.
# Target: human ether-à-go-go-related gene (hERG) potassium channel (human, UniProt Q12809)
# Assay: primary screen, population patch clamp on CHO cells stably expressing hERG
# Sequence of human ether-à-go-go-related gene (hERG) potassium channel (Q12809 whole entry, looked up): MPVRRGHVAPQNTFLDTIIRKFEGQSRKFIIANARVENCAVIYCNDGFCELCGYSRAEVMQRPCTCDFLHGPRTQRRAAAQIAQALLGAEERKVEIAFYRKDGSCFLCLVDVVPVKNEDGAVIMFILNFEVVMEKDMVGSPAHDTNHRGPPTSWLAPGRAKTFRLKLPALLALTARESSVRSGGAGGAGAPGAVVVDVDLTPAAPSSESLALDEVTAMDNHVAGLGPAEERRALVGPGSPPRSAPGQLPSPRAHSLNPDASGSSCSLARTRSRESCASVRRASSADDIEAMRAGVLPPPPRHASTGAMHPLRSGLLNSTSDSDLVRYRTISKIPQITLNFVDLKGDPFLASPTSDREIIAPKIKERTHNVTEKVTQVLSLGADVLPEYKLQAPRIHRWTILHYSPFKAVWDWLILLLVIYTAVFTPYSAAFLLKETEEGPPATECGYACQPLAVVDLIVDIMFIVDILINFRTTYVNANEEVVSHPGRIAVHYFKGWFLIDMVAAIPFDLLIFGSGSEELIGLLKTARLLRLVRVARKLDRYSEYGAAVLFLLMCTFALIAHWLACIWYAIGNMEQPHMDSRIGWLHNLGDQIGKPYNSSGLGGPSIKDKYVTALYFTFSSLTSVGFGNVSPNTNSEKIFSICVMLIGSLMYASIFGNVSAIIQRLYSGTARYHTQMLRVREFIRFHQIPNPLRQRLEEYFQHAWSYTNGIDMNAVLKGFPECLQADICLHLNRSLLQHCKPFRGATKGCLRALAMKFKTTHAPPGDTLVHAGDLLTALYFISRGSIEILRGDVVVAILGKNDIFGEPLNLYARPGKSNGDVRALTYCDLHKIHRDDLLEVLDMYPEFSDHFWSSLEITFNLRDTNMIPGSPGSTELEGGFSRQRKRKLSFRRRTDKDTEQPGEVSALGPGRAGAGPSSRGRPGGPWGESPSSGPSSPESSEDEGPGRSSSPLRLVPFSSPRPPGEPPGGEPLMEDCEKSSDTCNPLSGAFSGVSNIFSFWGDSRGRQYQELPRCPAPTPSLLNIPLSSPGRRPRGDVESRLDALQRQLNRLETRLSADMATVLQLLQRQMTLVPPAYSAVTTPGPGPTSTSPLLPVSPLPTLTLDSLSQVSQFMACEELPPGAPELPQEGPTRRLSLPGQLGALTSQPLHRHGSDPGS
row,Compound,"hERG current change (%, negative = inhibition) at 1uM [%]"
1,N#CSC(c1ccccc1)c1nc2ccccc2[nH]c1=O (stereo not drawn),15.4
2,Cc1cccc(N(C(=O)c2ccc(Cl)cc2)C2CS(=O)(=O)CC2OC(=O)c2ccc(Cl)cc2)c1 (stereo not drawn),26.1
3,O=C(NC(Cc1ccccc1)C(=O)N1CCN(c2ccccn2)CC1)c1ccco1 (stereo not drawn),11.5
4,O=C(NC1CCN(C(=S)NCc2ccco2)CC1)NC12CC3CC(CC(C3)C1)C2,12.5
5,CC12CCCc3c(O)cc(=O)n(c31)-c1ccccc12 (stereo not drawn),7.4
6,CC1CC(c2ccccc2)n2nc(NC(=O)c3cccs3)nc2N1 (stereo not drawn),18.3
7,Cc1ccc(OCCOc2cccc3ccc(C)nc23)c([N+](=O)[O-])c1.O=C(O)C(=O)O,10.8
8,Br.OCCCn1c(-c2ccccc2)csc1=Nc1ccccc1,11.4
9,CCOc1ccccc1CNCc1ccc(C(=O)O)cc1.Cl,11.8
10,Cc1ccsc1/C=C1\SC(N)=NC1=O,12.7
11,CC(C)(C)NC(=O)NC(=O)COC(=O)c1cc[n+]([O-])cc1,4.45
12,COc1cccc(N2CCN(C(=O)C3CCCN(S(=O)(=O)c4ccc5c(c4)oc(=O)n5C)C3)CC2)c1 (stereo not drawn),10.2
13,CCOC(=O)c1c(NC(=O)Cn2nnc3ccccc32)sc2c1CCC(C)C2 (stereo not drawn),0.405
14,Cc1cc(C)c(NC(=O)CSc2nnc(CNC(=O)c3ccco3)o2)c(C)c1,11.7
15,CC(=O)Nc1ccc(S(=O)(=O)Nc2ccc(-c3ccc4nnc(C)n4n3)cc2)cc1,-3.52
16,CCC(C)C(=O)Nc1nc(C)c(-c2csc(Nc3ccc(Cl)cc3)n2)s1 (stereo not drawn),17
17,COc1cccc2cc(-c3csc(CCn4nc(C)cc4C)n3)c(=O)oc12,-0.97
18,NC(=S)c1cnn2c(-c3cccc(C(F)(F)F)c3)ccnc12,11.8
19,CCOC(=O)c1[nH]c(C)c(C(=O)OCc2ccc(C)cc2)c1C,7.83
20,Cc1cccc(C)c1-n1c(=O)n(Cc2ccccc2)c(=O)c2[nH]cnc21,9.95
21,Cn1c(=O)[nH]c(=O)c2c1nc(CN1CCOCC1)n2Cc1ccccc1,-19.2
22,CCN1C(=O)C(O)(CC(=O)c2cc(C)ccc2C)c2ccccc21 (stereo not drawn),6.47

row,Compound,"hERG current change (%, negative = inhibition) at 1uM [%]"
1,N/C(=N\c1nc2c(c(=O)[nH]1)CCC2)Nc1ccccc1C(F)(F)F,10.1
2,N#CCc1ccc(NC(=O)Nc2cccc(Cl)c2)cc1,17
3,CCc1nnc(NC(=O)c2cccc(S(=O)(=O)N3CC(c4ccccc4)CC3=O)c2)s1 (stereo not drawn),8.5
4,CCCn1nnc(NC(=O)c2ccc(OC)cc2)n1,4.46
5,CN1CCN(Cc2c(O)ccc3cc(Br)ccc23)CC1,6.01
6,O=C(CCn1nnc2ccccc21)Nc1nnc(COc2ccc(F)cc2)s1,5.44
7,O=C(CSc1ccc(Br)cc1)NCC(c1cccs1)N1CCOCC1 (stereo not drawn),7.42
8,CC(C)NC(=O)[C@@H]1CSC2c3ccccc3C(=O)N21 (stereo partly drawn),2.74
9,O=C(N/C(=C/c1ccc(F)cc1)C(=O)N1CCCC1)c1ccccc1,25.3
10,COc1ccc(Cc2nnc(NC(=O)c3ccccc3)s2)cc1OC,12.1
11,O=C(CNC(=O)c1cc(Cl)nc2ccccc12)Nc1ccccc1Br,-0.485
12,COCCNC(=S)NC12CC3CC(CC(C3)C1)C2,11.3
13,CC(C)CCN1CCN(Cc2cccn2-c2ccccn2)CC1CCO (stereo not drawn),-36.6
14,COc1ccc2nc(NCc3cccnc3)sc2c1,8.85
15,Cc1noc(C)c1C1(O)CCCCCCCCCCC1,17.4
16,Cc1ccccc1N(C)S(=O)(=O)c1nnc(NC(=O)c2ccco2)s1,7.69
17,COCCNC(=S)N1CCN(c2nc(-c3cccc(OC)c3)cs2)CC1,12.8
18,COc1ccc2[nH]c(O)c(N=NC(=O)c3ccc(NS(=O)(=O)c4cccs4)cc3)c2c1,7.5
19,COc1ccc(NC(=O)N2CCc3ccccc3C2)cc1OC,8.34
20,COc1ccc(C2NC(=O)NC(O)(C(F)(F)F)C2C(=O)c2ccc(C)cc2)cc1 (stereo not drawn),4.43
21,CCC(=O)N1CCc2cc(S(=O)(=O)CCC(=O)N(C)c3ccc(OC)cc3OC)ccc21,11
22,COc1ccc2c(c1)C(C)CC(C)(C)N2C(=O)CSc1ncn[nH]1 (stereo not drawn),-0.0177

row,Compound,"hERG current change (%, negative = inhibition) at 1uM [%]"
1,CN(CCCNS(=O)(=O)c1cccc2cccnc12)Cc1ccccc1,4.6
2,Cc1ccc(-c2nc(NCc3ccco3)c3ccccc3n2)cc1,-1.09
3,Cc1ccc(-n2c(SCC(=O)NCC3CCCO3)nc3ccccc3c2=O)cc1C (stereo not drawn),13.1
4,COC(=O)c1c(-c2c(Cl)cccc2Cl)noc1C(=O)NNC(=O)N(C)C,13.6
5,CCc1nn(C(C)C(=O)NCc2cccc(OC)c2)c(=O)c2cc3occc3n12 (stereo not drawn),0.704
6,CCc1ccc(/C(C)=N/NC(=O)c2ccc(-n3cnnn3)cc2)cc1,5.97
7,Cc1ccc(C(=O)NNC(=O)CCn2nnc3ccccc32)cc1,23.2
8,O=c1cc(CCl)nc2sc3ccccc3n12,12.1
9,CN(C)CCCN(C(=O)c1ccc(S(=O)(=O)N2CCCCCC2)cc1)c1nc2c(F)cc(F)cc2s1.Cl,5.63
10,COc1ccc(N(CC(=O)NCC2CCCO2)S(=O)(=O)c2ccccc2)cc1OC (stereo not drawn),15.3
11,COc1ccc(NC(=O)NCCc2ccc(Cl)cc2)cc1OC,6.66
12,COc1ccc(Cn2c(=S)[nH]c3ccccc3c2=O)cc1,12.5
13,O=C(C1CC1)N1CCc2cc(Br)cc(S(=O)(=O)NCCCN3CCCC3)c21,14.4
14,O=C(NCCN1CCCCC1)Nc1cccc(C(F)(F)F)c1,-15.8
15,Cc1ccccc1N1CC(O)(c2ccccc2)[N+]2=C1SCC2.[Br-] (stereo not drawn),8.02
16,COCCCN(Cc1ccco1)C(=O)Cn1ncc2c(=O)oc3ccc(C)cc3c21,-3.81
17,CCC(C)Sc1nc2c(c(=O)[nH]c(=O)n2C)n1CCc1ccccc1 (stereo not drawn),1.22
18,Cc1cccc([C@@H]2[C@@H]3C(=O)N(Cc4ccccc4)C(=O)[C@@H]3[C@]3(C)C(=O)N(c4ccc(Br)cc4)C(=O)N23)c1,7.83
19,N#C/C(=C\C=C\c1ccccc1)C(=O)NCc1ccco1,6.06
20,CSc1ccccc1NC(=O)CN(c1ccccc1Br)S(C)(=O)=O,7.75
21,O=C(Nc1ccccn1)c1ccc(Br)c(S(=O)(=O)N2CCCCC2)c1,3.97
22,COc1ccc2[nH]c(=O)c(CN(Cc3cccs3)Cc3nnnn3Cc3ccccc3)cc2c1,18.9

row,Compound,"hERG current change (%, negative = inhibition) at 1uM [%]"
1,CCCCCCCC(=O)NN=C1CCN(Cc2ccccc2)CC1,11.4
2,C=CCN(C1CCCCC1)S(=O)(=O)c1ccc2c(c1)oc(=O)n2C,-4.3
3,CCc1c(O)nc(SC2CC(=O)N(c3ccccc3)C2=O)[nH]c1=O (stereo not drawn),8.68
4,Cc1c(C(=O)N2CCN(Cc3ccc4c(c3)OCO4)CC2)sc2ncnc(N3CCN(c4ccccc4)CC3)c12,19.8
5,CCOC(=O)c1cc(NC(=O)N(C(C)C)C2CCCCC2)c(C)nc1C,2.43
6,N#CCCN(CCC#N)C(=S)NC1CC2C=CC1C2 (stereo not drawn),6.58
7,CCn1c2ccccc2c2cc(NC(=O)COC(=O)c3cccc(S(=O)(=O)NC)c3)ccc21,7.35
8,CSc1ncccc1C(=O)OCC(=O)Nc1ccc2c(c1)CCC2,12.5
9,CCc1cc2c(COC(=O)c3cccc(S(C)(=O)=O)c3)cc(=O)oc2cc1O,13.7
10,COc1ccc(N(CC(=O)N2CCCCCC2)S(=O)(=O)c2ccccc2[N+](=O)[O-])c(OC)c1,2.98
11,CC(C)(C)c1ccc(OCC(=O)NC2CCS(=O)(=O)C2)cc1 (stereo not drawn),5.17
12,Cc1ccc(NC(=O)c2ccc(CSc3ccccn3)cc2)cc1,21.2
13,COc1ccc(C2C(C#N)=C(N)N(c3ccccc3)C3=C2C(=O)CCC3)cc1Cn1cc([N+](=O)[O-])cn1 (stereo not drawn),-1.41
14,Cc1ccc(C(=O)NCc2ccc3c(c2)CCO3)cc1C,2.48
15,CN(CC(=O)NCc1ccncc1)S(=O)(=O)c1cc(Cl)ccc1Cl,4.88
16,CC(CCc1ccccc1)N(C)CC(O)c1cccc([N+](=O)[O-])c1.Cl (stereo not drawn),-56.8
17,Cc1ccc2sc(N(CCCN(C)C)C(=O)CN3C(=O)c4ccccc4C3=O)nc2c1C.Cl,4.92
18,Nc1nc(O)c(CC(=O)O)s1,16.9
19,COc1ccc(N(CC(=O)NN=C2CCN(C)CC2)S(=O)(=O)c2ccccc2)c(OC)c1,15.7
20,CCOC(=O)C1CCN(C(=O)Nc2ccc(OC(F)(F)F)cc2)CC1,-8.34
21,FC(F)(F)c1cccc(NCc2cn3cccnc3n2)c1,5.36
